Measured values: paper PMC7819943, “Rice protein-binding microarrays: a tool to detect cis-acting elements near promoter regions in rice”
This is one part of the list.

Each sequence was assayed against T1, OsWOX13 (Oryza sativa, UniProt Q5QMM3 1-267) (assay: protein-binding microarray (RPBM); PBS, 2% BSA, 51.3 ng/ul salmon testes DNA, 50 uM zinc acetate, 200 nM TF, 25 C, 1 h; high values mean tight binding). Settings: protein: recombinant; tags: N-terminal polyhistidine and DsRed monomer fusion (pET32a); label: CyDye5-dUTP incorporated in the synthesized complementary strand; 3' TTTTT single-stranded linker to array surface; dsDNA, one strand shown.
T1 sequence: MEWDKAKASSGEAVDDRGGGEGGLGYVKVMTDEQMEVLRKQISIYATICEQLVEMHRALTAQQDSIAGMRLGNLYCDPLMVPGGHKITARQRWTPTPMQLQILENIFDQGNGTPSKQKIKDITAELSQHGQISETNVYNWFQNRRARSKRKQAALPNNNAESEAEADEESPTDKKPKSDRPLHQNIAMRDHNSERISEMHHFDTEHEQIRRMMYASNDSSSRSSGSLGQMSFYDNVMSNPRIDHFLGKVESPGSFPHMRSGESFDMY
Method in brief: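 Polyhistidine-tagged DsRed fusions of transcription factors, joined at the N-terminus, were expressed in E. coli BL21-CodonPlus and isolated on Ni–NTA. They were incubated at 200 nM for 1 h at 25 °C on a custom Agilent array, double-stranded and BSA-blocked, in PBS with 2% BSA, salmon testes DNA and 50 µM zinc acetate. The binding signal is per-feature fluorescence intensity (arbitrary units) read on an Axon 4000B scanner after washing.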
With “CTGGCTTAATGATTTACTTTGTTTGGATCTTGCGAACTCCCGGAGTCACCTAGTGCAG” the binding signal was 10600 fluorescence intensity (a.u.). For “TAAATTTAAATTTAGAACTTTAAATTTACTGGCTTATAAACGGAGTCACCTAGTGCAG”, the binding signal was 11600 fluorescence intensity (a.u.). For “AAAATAAAACTAAATTATCATGTGATTGTAGCATTATATACGGAGTCACCTAGTGCAG”, the binding signal was 10500 fluorescence intensity (a.u.). In the case of “ATTAGAAAGGACCAATCTAATCAAGCAGCTATTGACACAGCGGAGTCACCTAGTGCAG”, the binding signal is reported as 8860 fluorescence intensity (a.u.). With “CTTGACATAGATGTGGAAAGGACACGATTTTAATTCAAAACGGAGTCACCTAGTGCAG” the binding signal was 3280 fluorescence intensity (a.u.). For “CATCTAATTTCTACGTATTTTCTGTGGTCCTATCAAATGACGGAGTCACCTAGTGCAG”, the binding signal was 6500 fluorescence intensity (a.u.). For “TCCAAATTTAAGGTTGAAAATTCAAATTTTGGCTGATAAGCGGAGTCACCTAGTGCAG”, the binding signal was 4410 fluorescence intensity (a.u.). With “CTTCAATTGAGATGACCAATTTAGGACACAAGACAAAGCCCGGAGTCACCTAGTGCAG” the binding signal was 5930 fluorescence intensity (a.u.). For “ATTTAAATAGATGAGATTAAATTTATCCTATGGCTTGAAACGGAGTCACCTAGTGCAG”, the binding signal was 23900 fluorescence intensity (a.u.). For “CTAATTAGTTTTGGTTAGTACTTATAATTTTGTCCTAATGCGGAGTCACCTAGTGCAG”, the binding signal was 15700 fluorescence intensity (a.u.). For “GTGATTTATATGTCTCATCCTATAGTAGGGCAGGAGGAGTCGGAGTCACCTAGTGCAG”, the binding signal was 6640 fluorescence intensity (a.u.). “ATAATTGCTACTCTATCGACTCATATCGAGATGTCCACCCCGGAGTCACCTAGTGCAG” was tested, and the binding signal was 11900 fluorescence intensity (a.u.). “GTTGATTTAAATTCCTAAGATGCTAAAATTGGCCAATAATCGGAGTCACCTAGTGCAG” was tested, and the binding signal was 19500 fluorescence intensity (a.u.). “GGTAAATTTTATCCAGTTCTATTATTTACGGTGTTTTCCTCGGAGTCACCTAGTGCAG” was tested, and the binding signal was 10600 fluorescence intensity (a.u.). In the case of “TCCATCAATTTACCGTCAGCCACAGCGTTATACGCGTGAACGGAGTCACCTAGTGCAG”, the binding signal is reported as 4650 fluorescence intensity (a.u.). In the case of “CTTGTCATGATTAAGGTCCATCACAAAAGAATGCATGTCTCGGAGTCACCTAGTGCAG”, the binding signal is reported as 5680 fluorescence intensity (a.u.). For “CTCATCCTCCTCAATCACCGTTCGACTCGCTGCTTCCCCTCGGAGTCACCTAGTGCAG”, the binding signal was 7760 fluorescence intensity (a.u.). “AACTAATTTCAGTACAAAGACAGCCACTCCAGATATTAGGCGGAGTCACCTAGTGCAG” was tested, and the binding signal was 4720 fluorescence intensity (a.u.). “CACATGATTGATGTGAAATGATAAGAAATCAATGGACAAGCGGAGTCACCTAGTGCAG” was tested, and the binding signal was 42300 fluorescence intensity (a.u.). With “AATTTATAATTATATATTATAAGCTTGAATTTATTTATACCGGAGTCACCTAGTGCAG” the binding signal was 15000 fluorescence intensity (a.u.). In the case of “CCGGAAATTATTATTTTAATCGGCGCGGTGTCCACTGGCACGGAGTCACCTAGTGCAG”, the binding signal is reported as 13700 fluorescence intensity (a.u.). With “AATTGTCTATCAACAATGTTTGAGTAGACTATTCATACAGCGGAGTCACCTAGTGCAG” the binding signal was 4060 fluorescence intensity (a.u.). For “TTACAAGACTTTCAATTATTATCCACATTTATATAGATGTCGGAGTCACCTAGTGCAG”, the binding signal was 7150 fluorescence intensity (a.u.). “CTTTCCATTATATACTTGTCACTGGGTGCTATACTGCTTTCGGAGTCACCTAGTGCAG” was tested, and the binding signal was 3290 fluorescence intensity (a.u.). With “TGTAACTCAACTAATTGAGTAACTTATGGTGGAACATGTTCGGAGTCACCTAGTGCAG” the binding signal was 19300 fluorescence intensity (a.u.). For “GCGTTTGATTTGTTAGTAGCTCGTTGAGTGCATACAATGACGGAGTCACCTAGTGCAG”, the binding signal was 17300 fluorescence intensity (a.u.). For “CACATGCATTGACTAATAATTAATACATGTGGGTTGGACCCGGAGTCACCTAGTGCAG”, the binding signal was 7290 fluorescence intensity (a.u.). In the case of “AATAGGGTCAATTACTGAATCCAACAATGTTCTCGCAGCTCGGAGTCACCTAGTGCAG”, the binding signal is reported as 5180 fluorescence intensity (a.u.). “GAATCATAGAAAATTAATTATATGAGACAGAGATAGTATTCGGAGTCACCTAGTGCAG” was tested, and the binding signal was 4550 fluorescence intensity (a.u.). With “CCAATGATGAATGGAATACAATAATCTCGATATCTTCGTACGGAGTCACCTAGTGCAG” the binding signal was 4840 fluorescence intensity (a.u.). In the case of “GAGAAGATTTTACATGATGTAAGTATGGCATACGGATGTTCGGAGTCACCTAGTGCAG”, the binding signal is reported as 3280 fluorescence intensity (a.u.). “TCACACATCAATTTTCCAATTTTGCGCTGCTCTTTCCTCACGGAGTCACCTAGTGCAG” was tested, and the binding signal was 4690 fluorescence intensity (a.u.). “TGATTCTATCAATTAGTAATGTCTCAAGGAGCTAAAATTTCGGAGTCACCTAGTGCAG” was tested, and the binding signal was 10600 fluorescence intensity (a.u.). In the case of “GTGATTGAGTTTGAAAATGTAAACAATATATGAATAGATTCGGAGTCACCTAGTGCAG”, the binding signal is reported as 20800 fluorescence intensity (a.u.). For “TTGTGATTGCTTGTAGGTTTCATGGACTGAAAACTAGAACCGGAGTCACCTAGTGCAG”, the binding signal was 45800 fluorescence intensity (a.u.). In the case of “GGTTGATTATTCCGTCGGCGTCAGCCATCAGGTGCATCACCGGAGTCACCTAGTGCAG”, the binding signal is reported as 27900 fluorescence intensity (a.u.). In the case of “GAGAGAAATTTATTTTCAATTATCTTCCCCATAGGTATTGCGGAGTCACCTAGTGCAG”, the binding signal is reported as 8950 fluorescence intensity (a.u.). For “GTGAGTGATTGTGAATGCATGGTATTTATAGACTCGGTTTCGGAGTCACCTAGTGCAG”, the binding signal was 43600 fluorescence intensity (a.u.). In the case of “ATAAACCATTAGTAATTGACCTCACAGGTATAAAATCCTGCGGAGTCACCTAGTGCAG”, the binding signal is reported as 7560 fluorescence intensity (a.u.). In the case of “TGTCACATTCAATCTATTAGGCCATGTCTAACGCATCATGCGGAGTCACCTAGTGCAG”, the binding signal is reported as 11000 fluorescence intensity (a.u.). For “CTTGATTGTTGCTGGATAAATAGCTTCTATAACTGCAAGACGGAGTCACCTAGTGCAG”, the binding signal was 46200 fluorescence intensity (a.u.). “ATCTGAAAGATTGAGTTTTGAGTCTGAACTCTGAACTCTGCGGAGTCACCTAGTGCAG” was tested, and the binding signal was 9720 fluorescence intensity (a.u.).
